In PubChem BioAssay AID686971 (National Center for Advancing Translational Sciences (NCATS), 2013):
Screen size: about 360,000 compounds; about 7,500 (2.1%) were called active. The inconclusive results got no clear call from the source; some entries with a clear call stand among them for comparison. Calls follow the shape of the dose curve; as a rule, active = well fitted cell-killing curve with a large enough effect; inconclusive = small, poorly fitted or top-dose-only effect, or effect the other way, or another doubt; inactive = no such curve, though single readings can be large or run the other way. Potencies of inconclusive entries are left out as doubtful fits.

Assay: qHTS for induction of synthetic lethality in tumor cells producing 2HG: qHTS for the HT-1080-IDH1KD cell line;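 as to activity, negative = toxicity: 0% = DMSO wells and -100% = cell-free medium wells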
Details: HT-1080 IDH1 knockdown viability, ATP luminescence, 48 h; activity, negative = toxicity: at 46.1 µM (top of the series) unless noted
In short: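 Using the IDH1-knockdown HT-1080 line run in the same batch and compound series as the NT line, viability after 48 h at 37 °C was determined by CellTiter-Glo luminescence and expressed as % activity.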
Potency is read from the fitted curve at half-maximal effect; tags tell the direction and shape of the fitted curve.

Structure (SMILES)	Potency	activity, negative = toxicity
Cc1ccc(C)c(NP(=O)(Oc2ccccc2)Oc2ccccc2)c1	inconclusive [cytotoxic, single point]	
COc1cc2c(cc1OC)C1C(=O)c3ccc4c(c3OC1CO2)CC(C(C)C)O4 (centres undefined)	inconclusive [cytotoxic, partial curve]	
CNCC(C)c1ccccc1 (centres undefined)		inconclusive: 32.4%
CC(=NCc1ccc(F)cc1)c1c(O)n(C)c(=O)n(C)c1=O	inconclusive [cytotoxic, partial curve]	
Cc1ccc(-n2cc(CNC(C)Cc3cnccn3)c(-c3cccc(C)c3)n2)cc1 (centres undefined)	inconclusive [cytotoxic, single point]	
Cc1[nH]c2ccc(OC(F)(F)F)cc2c1CCNCc1cccc([N+](=O)[O-])c1	active: 13 µM	
COC(=O)C1=C(c2c(C)noc2C)C[C@@H]2CC[C@H]1N2C(=O)NCc1ccco1		inactive: 1.07%
CCN1CCN(C(=O)Cc2c(C)n(C(=O)c3ccc(Cl)cc3)c3ccc(OC)cc23)CC1	inconclusive [cytotoxic, partial curve]	
CN1C2CCC1CC(OC(=O)c1ccc([N+](=O)[O-])cc1)C2 (centres undefined)		inactive: -4.86%
C[C@]12CCC3C(CCC4=CC(O)CC[C@@]43/C=N/O)C1(O)CCC2C1=CC(=O)OC1 (some centres undefined)	active: 0.82 µM	
CN(C)C(=O)Oc1ccc([N+](=O)[O-])cc1		inactive: -7.38%
C[C@H]1CCCC(=O)CCCCCc2cc(O)cc(O)c2C(=O)O1	inconclusive [cytotoxic, single point]	
Cc1cc(N2CCN(S(=O)(=O)c3ccc(Cl)cc3)CC2)c2ccccc2n1	inconclusive [cytotoxic, single point]	
CN(Cc1cccc(-c2cccnc2)c1)C(=O)Oc1ccc([N+](=O)[O-])cc1	inconclusive [cytotoxic, single point]	
CCN(CC)C(=O)c1ccc(NC(=O)Nc2ccccc2F)cc1	active: 5.17 µM	
COC(=O)c1ccc(NC(=O)CSc2nc3ccc(N4C(=O)C5C6C=CC(C6)C5C4=O)cc3s2)cc1 (centres undefined)		inconclusive: -32.3% [cytotoxic]
CCOC(=O)c1c(C)n(Cc2ccccc2)c2ccc(OCC(O)CNC(C)(C)C)cc12 (centres undefined)	active: 16.4 µM	
COc1cc([N+](=O)[O-])c2ncccc2c1[N+](=O)[O-]	active: 7.31 µM	
c1ccc2c(CN3CCCCCCC3)c[nH]c2c1	inconclusive [cytotoxic, single point]	
COc1cccc(C(c2nnnn2Cc2ccccc2)N2CCC(n3c(=O)[nH]c4ccccc43)CC2)c1OC (centres undefined)	inconclusive [cytotoxic, partial curve]	
FC(F)(F)c1ccc2c(c1)nnn2C1CCN(Cc2nnnn2Cc2ccccc2)CC1	inconclusive [cytotoxic, single point]	
CCOC(=O)c1ccc(N=C(c2ccccc2)c2c(O)n(C)c(=O)n(C)c2=O)cc1	inconclusive [cytotoxic, single point]	
CCC(c1nnnn1-c1ccc2c(c1)OCCO2)N1CCC(n2c(=O)[nH]c3ccccc32)CC1 (centres undefined)	inconclusive [cytotoxic, single point]	

Structure (SMILES)	Potency	activity, negative = toxicity
COc1ccc(C(=O)N/N=C/C23CC[C@@H](O)CC2(O)CC[C@@H]2[C@@H]3CCC3(C)C(C4=CC(=O)OC4)CCC23O)cc1 (some centres undefined)	inconclusive [cytotoxic, single point]	
CN(C)C=C1C(=O)N(C2CCCCC2)C(=O)N(C2CCCCC2)C1=O	inconclusive [cytotoxic, single point]	
N[C@H](CO)Cc1ccccc1	active: 29.1 µM	
O=C(NCC1=C(c2cccc3ccccc23)C[C@@H]2CC[C@H]1N2Cc1ccco1)c1ccc([N+](=O)[O-])cc1	inconclusive [cytotoxic, single point]	
Clc1ccc(COC(Cn2ccnc2)c2ccc(Cl)cc2Cl)cc1 (centres undefined)	active: 14.6 µM	
CCCCCCCCCCCCCCCC[N+](C)(C)C	inconclusive [cytotoxic, single point]	
CN1CC(Br)C(=O)NC1=O (centres undefined)		inconclusive: 32.4%
Cc1cc(C)c(OCC(=O)Nc2cccc(NC(=O)c3ccco3)c2)c(Br)c1	inconclusive [cytotoxic, single point]	
CCCCn1c(N)c(C(=O)NCCN2CCOCC2)c2nc3ccccc3nc21	inconclusive [cytotoxic, partial curve]	
Cc1c(C(=O)N2CCC3(CC2)OCCO3)sc2ncnc(N3CCc4ccccc4C3)c12	inconclusive [cytotoxic, partial curve, poor fit]	
COC(=O)C1=C(c2c(C)noc2C)C[C@@H]2CC[C@H]1N2C(=O)N1CCOCC1		inactive: 2.35%
CN1C[C@H](CNC(=O)OCc2ccccc2)C[C@@H]2c3cccc4c3c(cn4C)C[C@H]21	active: 23.1 µM	
Cn1c(O)c(C(=Nc2ccccc2)SCc2ccc(Cl)cc2)c(=O)n(C)c1=O	inconclusive [cytotoxic, partial curve]	
CC1CCN(C(CC(=O)c2ccccc2)C(=O)c2ccccc2)CC1 (centres undefined)	inconclusive [cytotoxic, partial curve]	
O=C1NC(=O)C(=Cc2ccsc2)C(=O)N1		inactive: 3.87%
O=c1[nH]c2ccccc2n1C1CCN(C(c2cc3ccccc3o2)c2nnnn2Cc2ccccc2)CC1 (centres undefined)	active: 8.2 µM	
COC1CCC(OC2CC(C3(C)CCC4(CC(O)C(C)C(C(C)/C=C(\C)C(=O)C(C)CC(C)C(=O)O)O4)O3)OC3(OC(C4OC(O)(CO)C(C)CC4C)CC3C)C2C)OC1C (centres undefined)	active: 3.66 µM	
COc1ccc(CN2CCN(C(=O)Cc3ccccc3)CC2)cc1Br		inactive: 8.82%
CCCCCn1c(NC(=O)c2ccco2)c(C(=O)OCC)c2nc3ccccc3nc21	active: 11.6 µM	
CCOC(=O)[C@]12Cc3cc(OC)ccc3[C@H]1N(C(C)C)C(=O)c1cc(OC)ccc12	active: 20.6 µM	
Cc1ccc(/C=C2/C(=O)NC(=O)N(CCc3ccc(F)cc3)C2=O)o1	inconclusive [cytotoxic, single point]	
COc1ccc(-c2cc(-c3ccccc3)[n+](C)c(-c3ccccc3)c2)cc1	active: 14.6 µM	
COc1cc(-n2c(=S)[nH]c3ccc(C)cc3c2=O)c(Cl)cc1Cl	inconclusive [cytotoxic, partial curve]	

Structure (SMILES)	Potency	activity, negative = toxicity
COC(=O)C12OCC34C(CC5C(C)=C(O)C(=O)CC5(C)C3C(O)C1O)OC(=O)C(OC(=O)/C=C(\C)C(C)C)C24 (centres undefined)	active: 0.0259 µM	
CNC(=O)Nc1ccc(C(O)(C(=O)OC)C(F)(F)F)cc1 (centres undefined)		inactive: 3.8%
CN1CC(C(=O)c2ccc(Cl)cc2)C(c2ccc(Cl)cc2Cl)C1 (centres undefined)	inconclusive [cytotoxic, partial curve]	
CCOC(=O)C1(CCOc2ccccc2)CCN(C(C)CSC)CC1 (centres undefined)		inactive: -3.91%
CCOC(=O)C1(Cc2ccc(Cl)cc2)CCN(C(C)CCn2cccn2)CC1 (centres undefined)	inconclusive [cytotoxic, partial curve]	
Cc1ccc(N2C(=O)NC(=O)/C(=C\c3cc(C)n(-c4sc5c(c4C#N)CCCC5)c3C)C2=O)cc1	inconclusive [cytotoxic, single point]	
Cn1c(O)c(C=Nc2ccccc2-c2ccccc2)c(=O)n(C)c1=O		inactive: 2.48%
CC(C)COC(=O)n1c(=O)oc2cc(S(=O)(=O)N3CCCCC3)ccc21	inconclusive [cytotoxic, single point]	
CC12CCC(=O)C=C1CCC1C2CCC2(C)C(O)(C(=O)CO)CCC12O (centres undefined)		inactive: 16.8%
Cc1cccc(-n2c(C)nc3ccccc3c2=O)n1		inactive: 18%
N#CCCn1cc(C(=O)O)c(-c2cccc([N+](=O)[O-])c2)n1		inactive: 5.37%
CCOC(=O)[C@]12Cc3ccccc3[C@H]1N(Cc1ccccc1)C(=O)c1cc(OC)ccc12	inconclusive [cytotoxic, single point]	
CC(C)N(CCC(=O)c1ccc2ccccc2c1)Cc1ccccc1	active: 11.2 µM	
O=C(Nc1ccc2oc(-c3ccccc3F)nc2c1)c1ccc2c(c1)OCCO2	inconclusive [cytotoxic, single point]	
O=c1[nH]c(=O)n(Cc2ccc(F)cc2)c(O)c1/C=N/Nc1ccccc1	active: 2.31 µM	
COC(=O)C1=C(c2cc3ccccc3o2)C[C@@H]2CC[C@H]1N2C(=O)NCc1ccc(C(F)(F)F)cc1	inconclusive [cytotoxic, single point]	
COc1ccc(-n2nnnc2C(CCc2ccccc2)N2CCC(n3c(=O)[nH]c4ccccc43)CC2)cc1 (centres undefined)	active: 13 µM	
CN1CCN(c2ccc(S(C)(=O)=O)cc2[N+](=O)[O-])CC1		inactive: 12.6%
COc1ccc(Nc2nc(N3CCCC3)nc3ccccc23)c(OC)c1	active: 11.2 µM	
O=C(O)CCC(=O)NCCC1=c2ccccc2=N/C1=C\c1c(O)n(Cc2ccc(F)cc2)c(=S)[nH]c1=O		inactive: -0.431%
NCCc1ccc(OCc2ccccc2)c(OCc2ccccc2)c1	inconclusive [cytotoxic, single point]	
C[C@@H]1O[C@@H](O[C@H]2C[C@@H](O)[C@]3(CO)[C@@H]4C(CC[C@]3(O)C2)[C@@]2(O)CC[C@H](C3COC(=O)C3)[C@@]2(C)C[C@H]4O)[C@H](O)[C@H](O)[C@H]1O (some centres undefined)	active: 1.3 µM	
O=c1c2ccccc2nc(/C=C/c2ccc([N+](=O)[O-])o2)n1-c1ccc(O)cc1	active: 2.59 µM	
